From the supplement of paper PMC6531468
The other results are listed elsewhere or left out. Read counts after selection give these values, which scatter widely. Each score is taken over the longer molecules that contain the sequence shown.

The sequences below were run on IMP3 RRM1-2 (assay: 6-mer SELEX enrichment z-score vs GST control; IMP3 is the RNA-binding protein IGF2BP3; higher = more enriched by binding). Conditions: construct: RRM1-2 (1-163); SELEX round: R2.
Method: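 SELEX-seq with GST-tagged IMP3 RRM1-2 (Met1-Asn163) and an N40 RNA pool, round 2. 6-mer enrichment z-score normalised to GST SELEX. RNA written as DNA (T = U).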

IMP3 RRM1-2, sequence (chain, as listed by the source): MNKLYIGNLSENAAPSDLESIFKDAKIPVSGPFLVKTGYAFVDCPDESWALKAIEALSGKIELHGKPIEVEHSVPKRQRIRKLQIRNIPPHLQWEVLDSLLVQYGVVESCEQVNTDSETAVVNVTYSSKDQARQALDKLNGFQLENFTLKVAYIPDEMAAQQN

Sequence	6-mer SELEX enrichment z-score
ACGAGT	-0.397
GGACTA	-0.495
GCATAG	0.421
GCAGTT	0.335
TAGGTC	0.341
ATCGAA	-0.925
ACGCCC	-0.866
CAACGC	0.062
TCCGCA	0.251
GCAACC	0.678
CTCATC	1.19
ACTTTT	0.205
AATATG	-0.752
TCGGGT	0.424
TGCATA	0.375
CTCGGC	0.394
CCCTCC	-0.405
TTGTCG	0.419
TTCCAT	0.676
GGCCGA	-0.527

Sequence	6-mer SELEX enrichment z-score
ATCCTG	-0.123
CCAATT	-0.172
ATAACA	0.746
TTAAAA	-1.32
TAGTGA	-0.073
CCGACT	-0.687
CTTTAT	0.252
CGCTCA	0.698
CTATAC	0.103
TTAGCT	0.297
GGTTCC	0.273
GACCAG	-0.726
ATAGAG	-0.277
CACGTA	0.036
TATTAG	0.223
ACCGGT	-0.285
TTCTCC	0.225
GTATCC	-0.08
GTGTCA	0.284
TACTTA	0.114
